Experimental data: the supplement of paper PMC12217912
The other results are listed elsewhere or left out. The full chains were built here from the parent and the listed change. Inactive controls read about 0.05.

B1: TEV protease; numbered along this chain (parent)
chain: MGESLFKGPRDYNPISSSICHLTNESDGHTTSLYGIGFGPFIITNKHLFRRNNGTLVVQSLHGVFKVKDTTTLQQHLVDGRDMIIIRMPKDFPPFPQKLKFREPQREERICLVTTNFQTKSMSSMVSDTSCTFPSGDGIFWKHWIQTKDGQCGSPLVSTRDGFIVGIHSASNFTNTNNYFTSVPKNFMELLTNQEAQQWVSGWRLNADSVLWGGHKVFMVKPEEPFQPVKEATQL

Variants of: B1
Experiment: raw area under fraction-flipped curve 0-4 h after induction (AUC4h, not background-subtracted), DNA-recorder readout of cleavage of the substrate (dimensionless); higher = more cleavage of the substrate by the protease variant
Settings: temperature: 34 °C; time window: 0-4 h after rhamnose induction
Description: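 In vivo DNA recorder in E. coli TOP10(DE3) ΔrhaA at 34 °C. Each TEVp single-site mutant (parent TEVp 0) is paired with a single-site variant of the 7-mer TEVs (canonical ENLYFQ|S). The substrate sits between flexible linkers in a Bxb1-sfGFP-TEVs-SsrA fusion, so cleavage stabilises Bxb1 and speeds flipping of a recombination array, read by NGS. The value is the raw area under the fraction-flipped curve over 0-4 h after rhamnose induction (AUC4h), with ≥20 reads per time point. It is not background-subtracted; inactive controls average about 0.047.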
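Note: Bxb1 expression induced with 0.2% (w/v) L-rhamnose at OD600 near 0.5, cultures sampled hourly, flipped fraction per protease–substrate barcode pair counted by paired-end Illumina sequencing.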

Variant	area with substrate ENLYFAS	area with substrate ENLYFCS	area with substrate ENLYFES	area with substrate ENLYFFS	area with substrate ENLYFGS	area with substrate ENLYFHS	area with substrate ENLYFIS	area with substrate ENLYFKS	area with substrate ENLYFLS	area with substrate ENLYFMS	area with substrate ENLYFNS	area with substrate ENLYFPS	area with substrate ENLYFSS	area with substrate ENLYFTS	area with substrate ENLYFVS	area with substrate ENLYFWS	area with substrate ENLYFYS	area with substrate ENLYFRS	area with substrate ENLYFDS
R204V	0.0524	0.0608	0.0602	0.0646	0.0684	0.0642	0.0596	0.0881	0.0585	0.0614	0.0662	0.0566	0.0644	0.0507	0.0441	0.0548	0.0544	–	–
R204M	0.0557	0.0552	0.0734	0.0716	0.0583	0.0643	0.0567	0.048	0.0651	0.0755	0.0719	0.0563	0.0522	0.0699	0.0344	0.0775	–	0.0604	–
I167V	0.06	0.0746	0.0636	0.0687	–	0.0417	0.057	–	–	–	0.0587	0.0568	0.0682	0.0567	0.0537	–	–	0.0612	0.059
I167R	0.0402	–	0.0546	0.0725	0.0646	–	0.0597	0.0594	–	0.0497	0.0488	0.0589	–	0.0455	–	0.0263	0.047	–	0.0641
M219W	0.0764	0.0792	0.0672	0.0665	0.0616	0.0518	0.0621	0.0712	–	0.0698	0.0633	0.0597	0.0694	0.044	0.0589	0.0656	–	0.0546	0.0636
E195N	0.0634	0.0518	–	0.0712	–	0.0403	0.0518	–	–	0.0608	0.0581	0.0694	0.0797	–	–	0.0527	0.0491	0.0637	–
E195R	0.0462	0.0443	–	0.0854	0.0635	0.0601	0.0451	0.0693	–	0.0641	–	0.0616	0.0649	0.0766	0.0504	0.0508	0.0622	0.0585	–
W203V	0.0773	0.0502	0.0594	0.0656	0.0552	0.0563	0.052	0.0527	–	0.0592	0.0178	0.061	0.0591	0.0595	–	0.0631	–	0.0574	0.059
L211M	0.0703	0.0463	0.0569	0.0631	–	–	0.0566	0.135	0.0461	0.0693	0.0592	0.0609	0.0269	0.0548	0.0566	0.0622	0.0568	0.0695	–
F187Y	0.0643	0.0633	–	0.0645	–	0.036	0.0387	0.0512	0.0632	0.0579	–	0.0597	0.0565	0.0641	0.044	0.0553	0.0583	–	0.0519
F187R	0.0632	0.048	0.0475	–	–	0.0529	0.0534	0.0467	0.0425	0.0549	0.0529	0.0525	0.0537	–	0.0354	0.0689	0.0485	–	–
F187D	0.0559	–	0.0391	0.0786	–	0.0522	0.0314	–	0.0558	0.0504	0.0534	0.0381	0.054	0.0586	–	–	0.0669	0.0609	0.0487
K185S	0.0752	–	0.0711	0.0505	–	–	0.0568	0.0712	0.0623	0.0494	–	0.0553	–	0.0605	0.0603	–	–	–	0.0916
K185M	0.043	0.0554	0.0834	0.0628	–	0.0669	0.0599	0.056	0.0575	0.0678	0.0644	0.058	0.045	0.0619	0.0231	0.0601	0.0599	0.0535	–
K185C	0.0424	–	0.0798	0.0589	–	0.0339	0.0553	0.0523	0.0654	0.0978	0.0551	0.0578	0.0504	0.058	0.0505	0.0565	0.0629	0.0597	–
E189N	0.0522	0.066	0.0599	0.0278	0.0748	–	0.0535	0.0602	–	0.0839	–	0.0617	–	0.0692	0.0657	0.0515	0.0518	–	0.129
E189T	0.0486	0.0427	0.0653	0.0489	0.0557	0.0832	0.0609	–	–	0.0384	–	0.0603	–	0.0669	0.0548	–	–	0.0575	–
E189G	0.0537	–	0.0627	0.0675	0.0568	0.0554	0.0638	–	–	0.0689	0.0645	0.0603	0.0661	0.0618	0.0557	0.0519	0.0613	0.0526	0.0675
T181F	0.0602	–	0.0459	0.0287	–	0.0487	0.058	0.0592	–	0.0605	0.0575	0.0486	–	–	–	0.0555	–	0.0557	0.0552
G214D	0.044	0.0696	0.0469	0.0517	–	0.0551	0.0517	0.0818	0.0704	0.0587	0.0465	0.0529	–	0.0514	0.03	–	–	–	0.0446
M188S	0.0566	0.0736	0.0588	0.0629	–	–	0.0652	–	0.0613	–	0.0687	0.0664	0.0697	0.0473	–	0.0538	–	–	0.0557
Q194N	0.0561	–	–	–	–	0.0671	0.054	0.0572	–	0.0671	0.0378	0.0548	–	0.0581	–	–	0.0489	–	0.0472
V165P	0.0472	0.024	0.0559	0.0691	0.0537	–	0.0531	–	0.0515	0.0485	0.0545	0.0578	–	–	0.0372	0.0529	0.0561	0.0805	0.05
V183W	0.0556	0.0455	0.0656	0.0708	–	0.0533	0.068	0.0586	0.0545	0.0638	0.0621	0.0578	0.075	0.0497	0.0722	0.0653	–	–	0.0544
